Experimental data from ChEMBL document CHEMBL5303300, “EUbOPEN Chemogenomics Library - Multiplex” (2023).

How the values were obtained:
Fibroblast = assay: Multiplex assay against human fibroblast; assay type: toxicity, cell-based; settings: number of replicates 2
Method in brief: (§1)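 Per cents of healthy-nucleus cells form the tubulin, mitochondrial-mass and membrane-permeability phenotype values. Live cells were stained at seeding with Hoechst33342, BioTracker Green Microtubule Cytoskeleton Dye, MitoTracker Red and Annexin V Alexa Fluor 680. After compound addition they were imaged on a CQ1 microscope at 37°C and 5% CO2, and CellPathfinder machine-learning gating split them into Hoechst high-intensity objects or normal cells, normal cells into healthy, pyknosed or fragmented nuclei, and pyknosed cells into mitotic or apoptotic.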

U2OS = assay: Multiplex assay against U2OS; assay type: toxicity, cell-based; settings: human, number of replicates 2; method in brief: as §1
[1] = 12 h, 1 µM, compound concentration 1 uM
[2] = 12 h, 10 µM, compound concentration 10 uM
[3] = 24 h, 1 µM, compound concentration 1 uM
[4] = 24 h, 10 µM, compound concentration 10 uM
[5] = 48 h, 1 µM, compound concentration 1 uM
[6] = 48 h, 10 µM, compound concentration 10 uM
[7] = 12 h, 0 µM, compound concentration 0 uM
[8] = 24 h, 0 µM, compound concentration 0 uM
[9] = 48 h, 0 µM, compound concentration 0 uM

Row | SMILES | Population Fragmented Nuclei (%) (U2OS; [3]) | Total Cell Count (U2OS; [1]) | Total Cell Count (U2OS; [3]) | Total Cell Count (U2OS; [5]) | Population Fragmented Nuclei (%) (U2OS; [1]) | Total Cell Count (U2OS; [2]) | Population Fragmented Nuclei (%) (U2OS; [4]) | Population Fragmented Nuclei (%) (U2OS; [5]) | Population Fragmented Nuclei (%) (U2OS; [2]) | Total Cell Count (U2OS; [4]) | Total Cell Count (U2OS; [6]) | other results
1 | O=C1NC(=O)C(c2ccccc2[N+](=O)[O-])=C1Nc1ccc(O)c(Cl)c1 | 17% and 2% |  |  |  |  |  |  |  |  |  |  | Population Apoptotic (%) (Fibroblast; [1]): 12% and 46%; Population Mitotic Cells (%) (U2OS; [1]): 0% and 61%; Population Mitotic Cells (%) (U2OS; [2]): 20% and 62%
2 | c1ccc2c(-c3coc4cc(-c5ccc(N6CCNCC6)cc5)cnc34)ccnc2c1 |  | 23 and 139 | 36 and 194 | 66 and 331 |  |  |  |  |  |  |  | Population Healthy Nuclei (%) (Fibroblast; [2]): 31% and 1%; Population Healthy Nuclei (%) (Fibroblast; [4]): 6% and 20%; Population Mitochondria Different-Phenotype (%) (Fibroblast; [4]): 0% and 30%; Population Apoptotic (%) (U2OS; [1]): 0% and 73%
3 | CCN(CC)C/C=C/C(=O)Nc1cc2c(Nc3ccc(F)c(Cl)c3)ncnc2cc1OCC1CC1 | 24% and 3% | 39 and 151 | 50 and 193 | 56 and 249 | 20% and 6% | 43 and 145 | 9% and 41% | 23% and 6% |  |  |  | Population Mitochondria Different-Phenotype (%) (Fibroblast; [2]): 22% and 7%; Population Membrane Permeable-Phenotype (%) (U2OS; [4]): 86% and 0%; Population Mitochondria Different-Phenotype (%) (U2OS; [4]): 73% and 0%; Population Mitotic Cells (%) (U2OS; [5]): 15% and 1%; Population Fragmented Nuclei (%) (U2OS; [6]): 51% and 5%
4 | CC(=O)O[C@H]1C(=O)[C@@]2(C)[C@H]([C@H](OC(=O)c3ccccc3)[C@]3(O)C[C@H](OC(=O)[C@H](O)[C@@H](NC(=O)c4ccccc4)c4ccccc4)C(C)=C1C3(C)C)[C@]1(OC(C)=O)CO[C@@H]1C[C@@H]2O [PACLITAXEL] |  |  |  |  |  |  |  |  |  |  |  | Population Tubulin-Different-Phenotype (%) (Fibroblast; [4]): 7, 23, 12, 10%; Population Mitotic Cells (%) (Fibroblast; [6]): 7, 17, 13, 28%
5 | COc1cc(C(N)=O)ccc1Nc1ncc2c(n1)N(CCC(C)C)[C@H](C)C(=O)N2C | 56% and 17% | 21 and 142 | 25 and 212 | 34 and 304 | 28% and 8% |  |  |  |  |  |  | Population Membrane Permeable-Phenotype (%) (Fibroblast; [7]): 30% and 9%; Population Mitotic Cells (%) (Fibroblast; [7]): 12% and 43%; Population Pyknosed Nuclei (%) (Fibroblast; [8]): 16% and 5%; Population Fragmented Nuclei (%) (U2OS; [7]): 38% and 12%; Total Cell Count (U2OS; [7]): 42 and 157; Population Mitochondria Different-Phenotype (%) (U2OS; [1]): 21% and 2%; Population Mitotic Cells (%) (U2OS; [1]): 0% and 38%; Total Cell Count (U2OS; [8]): 41 and 163; Population Membrane Permeable-Phenotype (%) (U2OS; [3]): 12% and 1%; Population Mitochondria Different-Phenotype (%) (U2OS; [3]): 25% and 1%; Population Mitotic Cells (%) (U2OS; [3]): 33% and 5%; Population Mitotic Cells (%) (U2OS; [9]): 25% and 4%; Population Pyknosed Nuclei (%) (U2OS; [9]): 8% and 29%; Total Cell Count (U2OS; [9]): 49 and 162; Population Healthy Nuclei (%) (U2OS; [5]): 20% and 61%; Population Membrane Permeable-Phenotype (%) (U2OS; [5]): 14% and 2%; Population Mitochondria Different-Phenotype (%) (U2OS; [5]): 14% and 2%
6 | Cn1cc(-c2ccc(-c3cncc(Cl)c3N3CCC4(CCNC4=O)CC3)cc2)cn1 | 3% and 27% | 261 and 42 | 339 and 43 | 615 and 58 | 4% and 28% | 42 and 140 | 19% and 5% | 4% and 27% | 28% and 6% | 42 and 174 | 216 and 45 | Population Membrane Permeable-Phenotype (%) (Fibroblast; [5]): 28% and 5%; Population Mitotic Cells (%) (U2OS; [2]): 0% and 50%; Population Mitotic Cells (%) (U2OS; [4]): 11% and 39%; Population Mitotic Cells (%) (U2OS; [5]): 29% and 0%; Population Mitochondria Different-Phenotype (%) (U2OS; [6]): 20% and 4%
7 | O=C(Nc1ccnc(NC(=O)C2CC2)c1)c1c(Cl)cccc1Cl | 80% and 6% |  |  | 117 and 366 | 78% and 4% | 19 and 183 | 48% and 7% | 63% and 7% | 36% and 6% | 31 and 167 | 38 and 170 | Population Tubulin-Different-Phenotype (%) (Fibroblast; [5]): 21% and 6%; Population Healthy Nuclei (%) (U2OS; [1]): 19% and 82%; Population Mitotic Cells (%) (U2OS; [1]): 66% and 15%; Population Pyknosed Nuclei (%) (U2OS; [1]): 2% and 13%; Population Membrane Permeable-Phenotype (%) (U2OS; [2]): 14% and 2%; Population Healthy Nuclei (%) (U2OS; [3]): 16% and 81%; Population Mitotic Cells (%) (U2OS; [3]): 40% and 9%; Population Membrane Permeable-Phenotype (%) (U2OS; [4]): 30% and 4%; Population Fragmented Nuclei (%) (U2OS; [6]): 60% and 15%; Population Healthy Nuclei (%) (U2OS; [6]): 15% and 48%
8 | Cc1cn(CCN2CCN(c3ccccc3-c3cc(C#N)cc(C(=O)NCCCN4CCCC4)c3)CC2)c2ccccc12 | 20% and 1% | 49 and 199 | 62 and 256 | 75 and 411 | 16% and 4% |  |  | 17% and 4% |  |  |  | Population Membrane Permeable-Phenotype (%) (U2OS; [5]): 15% and 4%; Population Healthy Nuclei (%) (U2OS; [6]): 44% and 8%
9 | CC1=C(C)C(=O)C(C(CCCCCC(=O)O)c2ccccc2)=C(C)C1=O (stereo not given) [SERATRODAST] |  | 35 and 265 | 40 and 395 | 101 and 857 |  | 76 and 303 | 23% and 4% |  | 26% and 3% | 98 and 410 | 150 and 894 | Population Pyknosed Nuclei (%) (Fibroblast; [1]): 36% and 8%; Population Pyknosed Nuclei (%) (Fibroblast; [3]): 31% and 10%; Population Apoptotic (%) (Fibroblast; [4]): 63% and 14%; Population Pyknosed Nuclei (%) (Fibroblast; [5]): 25% and 7%
10 | CN[C@@H](C)C(=O)N[C@H](C(=O)N1CCC[C@H]1C(=O)N[C@H](C(=O)NCCCCCCNC(=O)[C@@H](NC(=O)[C@@H]1CCCN1C(=O)[C@@H](NC(=O)[C@H](C)NC)C1CCCCC1)C(c1ccccc1)c1ccccc1)C(c1ccccc1)c1ccccc1)C1CCCCC1 (I: H-[NMeA][Chg]P[Dip] / II: H-[NMeA][Chg]P[Dip]; linker I:C-II:C via Hexamethylenediamine) | 40% and 1% |  |  | 92 and 363 | 50% and 2% | 196 and 55 |  | 33% and 7% | 6% and 21% | 62 and 257 | 414 and 90 | Population Tubulin-Different-Phenotype (%) (U2OS; [3]): 25% and 77%; Population Mitochondria Different-Phenotype (%) (U2OS; [4]): 5% and 16%; Population Mitotic Cells (%) (U2OS; [6]): 5% and 23%
11 | CC(C)N1CCN(Cc2cnc(-c3cc(-c4cccc5[nH]ccc45)cc4[nH]ncc34)o2)CC1 [NEMIRALISIB] |  | 40 and 304 | 44 and 401 | 82 and 742 |  | 53 and 202 |  |  |  | 49 and 221 | 66 and 307 | Population Mitochondria Different-Phenotype (%) (U2OS; [2]): 6% and 28%
12 | COc1ccc2cc(S(=O)(=O)N[C@H](CC(=O)N[C@H](Cc3ccc(CN4[C@H](C)CCC[C@@H]4C)cc3)C(=O)N(C)C(C)C)c3ccc4c(c3)OCO4)ccc2c1.Cl |  | 35 and 221 | 40 and 292 | 64 and 409 |  | 33 and 207 |  |  | 31% and 2% | 33 and 246 | 27 and 261 | Population Mitotic Cells (%) (U2OS; [2]): 0% and 33%; Population Fragmented Nuclei (%) (U2OS; [6]): 37% and 6%

For part of its entries the source gives two or more results. The other results are left out here. There may be further records. Values that stand side by side are repeats across runs, samples, wells, individuals or studies. *1 amine or outer side, *2 acyl side, *3 side chain or, on linkers, in order; H or OH if unused. Where a SMILES comes first, the peptide text is derived from it. Bridges are numbered along the chain shown (N, C = ends). Roman numbers before positions name the chains, in order. [ ]: non-standard residue; d: D form. Hexamethylenediamine = C(CCCN[*:2])CCN[*:1]; Dip = N[C@H](C(=O)O)C(c1ccccc1)c1ccccc1; Chg = N[C@H](C(=O)O)C1CCCCC1; NMeA = CN[C@@H](C)C(=O)O
